Measurements published in PubChem BioAssay AID485294 (National Center for Advancing Translational Sciences (NCATS), 2010).
Out of some 370,000 compounds screened, about 150 (0.041%) were called active. Inconclusive results, whose numbers are uncertain, are shown with a selection of clear calls. Calls come from the whole dose curve; as a rule, active = well fitted inhibition curve with a large enough effect; inconclusive = small, poorly fitted or top-dose-only effect; inactive = flat fitted curve, though single readings scatter. Potencies of inconclusive entries are left out as doubtful fits.

Target: Beta-lactamase (Escherichia coli (strain K12)) (UniProt P00811)
UniProt P00811, sequence (P00811 whole entry, looked up): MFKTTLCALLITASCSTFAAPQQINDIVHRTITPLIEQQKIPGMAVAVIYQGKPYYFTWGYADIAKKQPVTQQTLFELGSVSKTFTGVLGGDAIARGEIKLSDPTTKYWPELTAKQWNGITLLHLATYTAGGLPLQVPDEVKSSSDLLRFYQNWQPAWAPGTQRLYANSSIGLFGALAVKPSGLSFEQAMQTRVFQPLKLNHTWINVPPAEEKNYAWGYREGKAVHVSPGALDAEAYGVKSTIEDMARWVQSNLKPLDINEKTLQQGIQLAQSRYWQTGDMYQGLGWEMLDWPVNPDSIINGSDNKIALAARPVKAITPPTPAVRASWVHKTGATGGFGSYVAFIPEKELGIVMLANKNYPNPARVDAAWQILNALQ
Assay: qHTS Inhibitors of AmpC Beta-Lactamase (assay with detergent); note: nearly all actives have a fitted effect of over 25% in size
Details: AmpC hydrolysis of nitrocefin, absorbance 480 nm, 0.01% Triton; series mostly up to 114 µM
In short: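 20 mM phosphate pH 7.0 + 0.01% (detergent screen) or 0.0001% Triton X-100; 5.3 nM AmpC reagent; cpd preinc 15 min RT; nitrocefin (800 uM stock) to start; A480 q20 s × 4 min; Activity was normalised to no-enzyme and no-compound control wells.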
Potency is the fitted concentration of half-maximal effect; tags give direction and shape of the fitted curve.

Row | SMILES | Potency
1 | Cc1ccc(OCCCCn2c(CCNC(=O)C(C)(C)C)nc3ccccc32)cc1 | inactive
2 | CCc1ccc(Nc2nnc(SCC(=O)c3c(N)n(C4CC4)c(=O)[nH]c3=O)s2)cc1 | inconclusive [inhibitor, full curve, poor fit]
3 | CCOC(=O)c1c(C)[nH]c(C(=O)OCC(=O)Nc2cc(C)c(Cl)cc2OC)c1C | inconclusive [inhibitor, single point]
4 | CCOC(=O)/C(C(N)=NC(C)C)=C(\O)c1ccccc1 | inconclusive [inhibitor, full curve, poor fit]
5 | O=C(CSc1nnc(C2CCCCC2)o1)Nc1ccccc1Cl | inconclusive [inhibitor, partial curve]
6 | O=[N+]([O-])c1ccc(N2CCNCC2)cc1NCc1ccco1 | inactive
7 | COC(=O)CN(c1ccccc1)S(=O)(=O)c1ccc(F)cc1 | inconclusive [inhibitor, full curve, poor fit]
8 | COc1ccc(OC)c(C(O)CNC(=O)CN)c1 (stereo not drawn) | inconclusive [inhibitor, full curve, poor fit]
9 | CC(=O)Nc1ccc(-n2nnnc2SCC(=O)NC2CCCC2)cc1 | inconclusive [inhibitor, partial curve, poor fit]
10 | C=CCn1c(SCC(=O)/C(C#N)=C(\C)N)nnc1C1CCCCC1 | inconclusive [inhibitor, full curve, poor fit]
11 | Cc1cc(C)n(-c2ccc(C(=O)Nc3nnc(C4CC4)s3)cc2)n1 | inconclusive [inhibitor, full curve, poor fit]
12 | CC(=O)N1CCC2(CC1)OC(=O)C(C)=C2C(=O)Nc1ccccc1C(F)(F)F | inactive
13 | O=C(Nc1ccc(NC(=O)C23CC4CC(CC(C4)C2)C3)cc1)c1cc(F)c(F)cc1Cl | inconclusive [inhibitor, partial curve, poor fit]
14 | O=C(NCc1ccc2c(c1)OCO2)C1CCCN(S(=O)(=O)c2cccs2)C1 (stereo not drawn) | inconclusive [inhibitor, full curve, poor fit]
15 | O=C(CCn1nnc2ccccc2c1=O)N[C@H](C(=O)O)c1ccccc1 | inconclusive [inhibitor, full curve, poor fit]
16 | COC(=O)C1=C(C(=O)c2ccc(C)cc2)C(c2ccccc2)n2nnnc2N1 (stereo not drawn) | inconclusive [inhibitor, partial curve]
17 | CC(C)N1C(=O)CC2(CC[N+](C)(CCOC(=O)C(O)(c3ccccc3)c3ccccc3)CC2)C1=O (stereo not drawn) | inactive
18 | CC(C)c1ccc(/C=N\NC(=O)c2ccc(Cn3cccn3)o2)cc1 | inconclusive [inhibitor, full curve]
19 | COc1ccc(/C=C2\SC(=O)N(CCNC(=O)C3CC4C=CC3C4)C2=O)cc1 (stereo not drawn) | inactive
20 | O=C(/N=C1\NC(=O)C(F)(C(F)(F)F)S1)NC1CCCCC1 (stereo not drawn) | inactive
21 | Fc1ccc(-c2nnn(Cc3ccc(F)cc3Cl)n2)cc1 | inactive
22 | COc1cccc(CNc2nc(SC)ncc2CO)c1 | inconclusive [inhibitor, full curve]
23 | CCOc1ccc(CN2CCNC(=O)C2CC(=O)NC2CCCCCC2)cc1 (stereo not drawn) | inconclusive [inhibitor, full curve]

Row | SMILES | Potency
24 | CC1(C(=O)O)C=CC2(CCCCC2)N1C(=O)c1ccccc1 (stereo not drawn) | inconclusive [inhibitor, partial curve]
25 | O=c1c2ccccc2nc(-c2ccco2)n1CCCn1ccnc1 | inactive
26 | N#Cc1cc(-c2ccccc2)nn1-c1ccccc1 | inconclusive [inhibitor, full curve, poor fit]
27 | O=C(C1=C(O)C(=O)N(Cc2ccco2)C1c1ccccc1)c1cccs1 (stereo not drawn) | inconclusive [inhibitor, full curve, poor fit]
28 | CCN(CC)CCCN=C(C)c1c(O)n(-c2ccc(C)cc2)c(=O)[nH]c1=O | inconclusive [inhibitor, full curve, poor fit]
29 | COc1ccc(Cn2c(O)c(C=Nc3ccc(O)cc3)c3ccccc3c2=O)cc1 | inconclusive [inhibitor, partial curve]
30 | CCN(C(=O)COC(=O)c1ccc(Cl)nc1)C1CCS(=O)(=O)C1 (stereo not drawn) | inconclusive [inhibitor, single point]
31 | O=C(O)CNC(=O)CC12CC3CC(CC(C3)C1)C2 | inconclusive [inhibitor, full curve, poor fit]
32 | Cn1c(CNC(=O)CNC(=O)c2ccccc2)cc(=O)n(C)c1=O | inconclusive [inhibitor, full curve, poor fit]
33 | Cc1ccc(NC(=S)NCc2ccccc2Cl)c(C)c1 | inconclusive [inhibitor, partial curve]
34 | COc1ccc(N2CCN(c3cc(C)c4ccc(O)cc4n3)CC2)cc1 | inconclusive [inhibitor, partial curve, poor fit]
35 | O=C(Cc1nc2ccccc2[nH]1)c1ccc(Cl)cc1 | inactive
36 | COc1ccc(-c2csc(N(CCCN(C)C)C(=O)c3ccccc3F)n2)cc1 | inconclusive [inhibitor, partial curve]
37 | COc1ccc(NC(=O)N2C3CCCC2CC(NC(=O)C2CC2)C3)cc1 (stereo not drawn) | inconclusive [inhibitor, full curve, poor fit]
38 | O=C(COc1cccnc1[N+](=O)[O-])N1CCN(S(=O)(=O)c2ccc3ccccc3c2)CC1 | inactive
39 | CCCN(CCC)c1nc(N)nc(-c2cc(Cl)ccc2OC)n1 | inconclusive [inhibitor, full curve, poor fit]
40 | Nc1ncc2[nH]cnc2n1 | inconclusive [inhibitor, partial curve]
41 | O=C(O)CCCc1ccc(N(CCCl)CCCl)cc1 | inactive
42 | CC1(C)C(=O)C2(C(=O)NCc3ccccc3)CCC1C2 (stereo not drawn) | inconclusive [inhibitor, full curve, poor fit]
43 | COc1ccc(NC(=O)c2ccccc2OCc2ccc(F)cc2)c(OC)c1 | inactive
44 | COc1ccc(NC(=O)CSc2nnc(C3CC3)n2C)cc1S(=O)(=O)N1CCOCC1 | inactive
45 | Cc1cc(NC(=O)c2ccc(N3C(=O)CCC3=O)cc2)no1 | inconclusive [inhibitor, partial curve, poor fit]
46 | CCOc1ccc(Br)cc1CNc1ccc2c(c1)OCCO2 | inactive

Row | SMILES | Potency
47 | CCC(C)[C@H](NC(=O)[C@@H]1Cc2c([nH]c3ccccc23)C2c3ccccc3C(=O)N21)C(=O)N1CCC[C@@H]1C(=O)O (stereo partly drawn) | inconclusive [inhibitor, full curve, poor fit]
48 | Cc1ccc(NC(=O)C2CCCN(c3ncccn3)C2)c(C)c1 (stereo not drawn) | inconclusive [inhibitor, full curve, poor fit]
49 | Cc1ccc(S(=O)(=O)N2CCC(C(=O)NCc3cccnc3)CC2)cc1 | inconclusive [inhibitor, full curve]
50 | CC1C(=O)N2CCCc3cc(S(=O)(=O)N(C)Cc4ccccc4)cc1c32 (stereo not drawn) | inconclusive [inhibitor, partial curve]
51 | Cc1sc(N/N=C/c2cccs2)nc1-c1ccccc1 | inactive
52 | Cc1ccccc1C(=O)Nc1cc(S(=O)(=O)N2CCCCC2)ccc1N1CCN(C)CC1 | inconclusive [inhibitor, full curve, poor fit]
53 | Cc1cccc(NC(=O)CSc2nnc(C3CC3)n2CC2CCCO2)c1 (stereo not drawn) | inactive
54 | CC1CCN(c2oc(-c3cccc4ccccc34)nc2C#N)CC1 | inconclusive [inhibitor, full curve, poor fit]
55 | COc1nc(Nc2ccc(C(C)C)cc2)nc(OC)n1 | inconclusive [inhibitor, full curve, poor fit]
56 | CCc1nnc(NS(=O)(=O)c2ccc(N/C=C\C(=O)c3ccc(C)cc3)cc2)s1 | inconclusive [inhibitor, partial curve]
57 | Cc1cc(C)cc(Nc2cc(C)nc3nc(C)nn23)c1 | inconclusive [inhibitor, full curve, poor fit]
58 | CC(C)c1ccc(-c2csc3nc[nH]c(=O)c23)cc1 | inconclusive [inhibitor, full curve]
59 | Cc1cccc2c1NC(=O)/C2=C\C(=O)c1cccs1 | inactive
60 | CS(=O)(=O)N(Cc1ccccc1)c1ccc(C(=O)Nc2cccnc2)cc1 | inconclusive [inhibitor, partial curve]
61 | CCOC(=O)Cc1cnc(NC(=O)NC(C(=O)OCC)(c2ccccc2)C(F)(F)F)s1 (stereo not drawn) | inconclusive [inhibitor, full curve, poor fit]
62 | Cn1c(Oc2ccc(F)cc2)nc2c1c(=O)n(Cc1ccccc1Cl)c(=O)n2C | inactive
63 | CCc1n[nH]c(=S)n1/N=C/c1ccc2c(c1)OCO2 | inactive
64 | CCC(c1nnc(SCC(=O)N2CC3(C)CC2CC(C)(C)C3)o1)N(C)C (stereo not drawn) | inconclusive [inhibitor, full curve, poor fit]
65 | CCOC(=O)C1CCCN(Cc2ccc(OCC)cc2)C1 (stereo not drawn) | inconclusive [inhibitor, full curve, poor fit]
66 | COc1ccc2oc(C(=O)OCc3nnc(-c4ccccc4)o3)c(C)c2c1 | inconclusive [inhibitor, full curve, poor fit]
67 | COc1ccc(CC(=O)Nc2nc3ccccc3[nH]2)cc1 | inactive
68 | O=C1CNC(=S)N1Cc1ccc(Cl)cc1 | inactive
